Measured values: US20250241301A1, “COMPOSITIONS AND METHODS FOR INHIBITING PATHOGEN GROWTH ON PLANTS AND IMPROVING CROP SAFETY” (priority 2024, published 2025)

Legend:
potato tubers [1] = assay: T2H / ethoxy diglycol vapor treatment of potato tubers, skin lesion count (Table 10); conditions: Cecile, T2H […] alone or in mixture, EDG alone 0.45 ml/kg, n = 5 tubers
potato tubers [2] = assay: T2H / propylene glycol vapor treatment of potato tubers, recirculating set-up, skin lesion count (Tables 5-8); conditions: for Fresh Lesions/5 Tubers (96 h) / No. of Lesions/5 Tubers (48 h) / TOTAL No. of Lesions/5 Tubers / Total Number of Lesions/5 Tubers 48 h / Total Number of Lesions/5 Tubers TOTAL / Total No. of Lesions 48 h / Total No. of Lesions 96 h / Total No. of Lesions TOTAL: vapor; for Total No. of Lesions 48 h / Total No. of Lesions 96 h / Total No. of Lesions TOTAL: Table 8, T2H […] alone or in mixture, PG alone 0.45 ml/kg, n = 5 tubers
[3] = Table 5, Norland Red, T2H 0.27 ml/kg alone or in mixture, PG alone 0.27 ml/kg
[4] = Table 5, Yukon Gold, T2H 0.27 ml/kg alone or in mixture, PG alone 0.27 ml/kg
[5] = Table 6 (repeat experiment), Norland Red, T2H 0.27 mL/kg alone or in mixture, PG alone 0.27 mL/kg
[6] = Table 6 (repeat experiment), Yukon Gold, T2H 0.27 mL/kg alone or in mixture, PG alone 0.27 mL/kg
[7] = Table 7, Norland Red, T2H 0.10 mL/kg alone or in mixture, PG alone 0.10 mL/kg
[8] = Table 7, Yukon Gold, T2H 0.10 mL/kg alone or in mixture, PG alone 0.10 mL/kg

SMILES	TOTAL (No. of Lesions) (potato tubers [1])	Total No. of Lesions 48 h (potato tubers [1])	Total No. of Lesions 96 h (potato tubers [1])	Fresh Lesions/5 Tubers (96 h) (potato tubers [2]; [3])	No. of Lesions/5 Tubers (48 h) (potato tubers [2]; [3])	TOTAL No. of Lesions/5 Tubers (potato tubers [2]; [3])	Fresh Lesions/5 Tubers (96 h) (potato tubers [2]; [4])	No. of Lesions/5 Tubers (48 h) (potato tubers [2]; [4])	TOTAL No. of Lesions/5 Tubers (potato tubers [2]; [4])	TOTAL No. of Lesions/5 Tubers (potato tubers [2]; [5])	Total Number of Lesions/5 Tubers 48 h (potato tubers [2]; [5])	TOTAL No. of Lesions/5 Tubers (potato tubers [2]; [6])	Total Number of Lesions/5 Tubers 48 h (potato tubers [2]; [6])	Total Number of Lesions/5 Tubers 48 h (potato tubers [2]; [7])	Total Number of Lesions/5 Tubers TOTAL (potato tubers [2]; [7])	Total Number of Lesions/5 Tubers 48 h (potato tubers [2]; [8])	Total Number of Lesions/5 Tubers TOTAL (potato tubers [2]; [8])	Total No. of Lesions 48 h (potato tubers [2]; Cecile)	Total No. of Lesions 96 h (potato tubers [2]; Cecile)	Total No. of Lesions TOTAL (potato tubers [2]; Cecile)	further results
CCOCCOCCO [EDG, ethoxy diglycol]	14	3	11																		
CC(O)CO (centres unmarked) [PG, propylene glycol]				13	10	23	10	5	15	17	14	24	15	5	8	6	8	15	11	26	Total No. of Lesions 48 h (potato tubers [2]; Isabella): 12; Total No. of Lesions 96 h (potato tubers [2]; Isabella): 19; Total No. of Lesions TOTAL (potato tubers [2]; Isabella): 31
CCC/C=C/C=O [T2H, trans-2-hexenal]	49	12	37	40	32	72	32	24	56	55	26	58	33	9	25	16	39	74	58	132	Total No. of Lesions 48 h (potato tubers [2]; Isabella): 43; Total No. of Lesions 96 h (potato tubers [2]; Isabella): 37; Total No. of Lesions TOTAL (potato tubers [2]; Isabella): 80; lesions/skin damage on potato tubers (FIG. 1) (potato tubers [2]; trans-2-hexenal vapors at 0.15 ml/kg): lesions/skin damage observed
